The supplement of paper PMC12645437, “Orthogonal IMiD-Degron Pairs Induce Selective Protein Degradation in Cells” (ACS Chemical Biology, 2025)
The list shows a part of the results.

B1: Q9UKT9 (peptide)
chain: FHCDVCGAAFTQKGNLLRHIKL
B2: Q9UKT9 (peptide)
chain: FDCPICGAFFTQKGNLLRHIKL
B3: Q9UKT9 (peptide)
chain: FFCEQCGASFTQKGNLLRHIKL
B4: Q9UKT9 (peptide)
chain: FCCEICGAPFTQKGNLLRHIKL
B5: Q9UKT9 (peptide)
chain: FDCEICGHRFTQKGNLLRHIKL
B6: Q9UKT9 (peptide)
chain: FCCNVCGACFTQKGNLLRHIKL
B7: Q9UKT9 (peptide)
chain: FFCPICGAPFTQKGNLLRHIKL
B8: Q9UKT9 (peptide)
chain: FVCEICGADFTQKGNLLRHIKL
B9: Q9UKT9 (peptide)
chain: LLCNQCGFGCTQKGNLLRHIKL
B10: Q9UKT9 (peptide)
chain: FHCNQCGRTFTQKGNLLRHIKL
B11: Q9UKT9 (peptide)
chain: FWCEICGRIFTQKGNLLRHIKL
B12: Q9UKT9 (peptide)
chain: FLCPQCGAAFTQKGNLLRHIKL
B13: Q9UKT9 (peptide)
chain: LNCEICGFCCTQKGNLLRHIKL
B14: Q9UKT9 (peptide)
chain: FTCDVCGAAFTQKGNLLRHIKL
B15: Q9UKT9 (peptide)
chain: FACDQCGAGFTQKGNLLRHIKL
B16: Q9UKT9 (peptide)
chain: FFCNICGAGFTQKGNLLRHIKL
B17: Q9UKT9 (peptide)
chain: FNCEQCGAQFTQKGNLLRHIKL
B18: Q9UKT9 (peptide)
chain: FCCNQCGHHFTQKGNLLRHIKL
B19: Q9UKT9 (peptide)
chain: FSCEICGAVFTQKGNLLRHIKL
B20: Q9UKT9 (peptide)
chain: LNCPICGFTCTQKGNLLRHIKL
B21: Q9UKT9 (peptide)
chain: FNCNQCGHHFTQKGNLLRHIKL
B22: Q9UKT9 (peptide)
chain: FRCPICGRNFTQKGNLLRHIKL
B23: Q9UKT9 (peptide)
chain: FGCPICGREFTQKGNLLRHIKL
B24: Q9UKT9 (peptide)
chain: FQCEQCGATFTQKGNLLRHIKL
B25: Q9UKT9 (peptide)
chain: FKCPVCGAMFTQKGNLLRHIKL
B26: Q9UKT9 (peptide)
chain: FDCPQCGATFTQKGNLLRHIKL
B27: Q9UKT9 (peptide)
chain: FDCEICGATFTQKGNLLRHIKL
B28: Q9UKT9 (peptide)
chain: FSCPICGHRFTQKGNLLRHIKL
B29: Q9UKT9 (peptide)
chain: FKCDVCGAWFTQKGNLLRHIKL
B30: Q9UKT9 (peptide)
chain: FDCEICGADFTQKGNLLRHIKL
B31: Q9UKT9 (peptide)
chain: FHCSVCGHEFTQKGNLLRHIKL
B32: Q9UKT9 (peptide)
chain: FRCDICGALFTQKGNLLRHIKL

Target: no compound (DMSO)
Test: log2 fold change of degron read counts, EGFP-low vs EGFP+ sorted cells; higher = lower degron-EGFP level without compound (poor expression or instability)
Details: compound: DMSO control; 18 h
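Note: jurkat cells carrying a lentiviral library of mutant zinc finger degrons fused to EGFP plus mCherry, mCherry+ cells FACS sorted, degron abundance counted by next-generation sequencing.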

Sequence | log2 fold change of degron read counts
B1 | -1.27
B2 | 0.0349
B3 | -0.97
B4 | -0.863
B5 | -0.958
B6 | 0.081
B7 | 0.665
B8 | -2.96
B9 | 0.949
B10 | 0.312
B11 | 1.03
B12 | -0.608
B13 | 0.198
B14 | -1.5
B15 | -0.821
B16 | 0.712

Sequence | log2 fold change of degron read counts
B17 | -1.7
B18 | 0.159
B19 | -2.22
B20 | 0.651
B21 | 0.711
B22 | 0.944
B23 | -0.504
B24 | -3.06
B25 | -0.234
B26 | -1.87
B27 | -0.952
B28 | -0.136
B29 | -1.03
B30 | -0.992
B31 | -0.97
B32 | -0.618
